# In publication PMC4336329 (PLoS ONE, 2015):
# The campaign covered roughly 310,000 compounds. About 2,200 (0.71%) showed an effect of 50% or more. Effects have a minus sign here. The list shows a part of the results.
# Target: human ether-à-go-go-related gene (hERG) potassium channel (human, UniProt Q12809)
# Assay: primary screen, population patch clamp on CHO cells stably expressing hERG
# Sequence of human ether-à-go-go-related gene (hERG) potassium channel (Q12809 whole entry, looked up): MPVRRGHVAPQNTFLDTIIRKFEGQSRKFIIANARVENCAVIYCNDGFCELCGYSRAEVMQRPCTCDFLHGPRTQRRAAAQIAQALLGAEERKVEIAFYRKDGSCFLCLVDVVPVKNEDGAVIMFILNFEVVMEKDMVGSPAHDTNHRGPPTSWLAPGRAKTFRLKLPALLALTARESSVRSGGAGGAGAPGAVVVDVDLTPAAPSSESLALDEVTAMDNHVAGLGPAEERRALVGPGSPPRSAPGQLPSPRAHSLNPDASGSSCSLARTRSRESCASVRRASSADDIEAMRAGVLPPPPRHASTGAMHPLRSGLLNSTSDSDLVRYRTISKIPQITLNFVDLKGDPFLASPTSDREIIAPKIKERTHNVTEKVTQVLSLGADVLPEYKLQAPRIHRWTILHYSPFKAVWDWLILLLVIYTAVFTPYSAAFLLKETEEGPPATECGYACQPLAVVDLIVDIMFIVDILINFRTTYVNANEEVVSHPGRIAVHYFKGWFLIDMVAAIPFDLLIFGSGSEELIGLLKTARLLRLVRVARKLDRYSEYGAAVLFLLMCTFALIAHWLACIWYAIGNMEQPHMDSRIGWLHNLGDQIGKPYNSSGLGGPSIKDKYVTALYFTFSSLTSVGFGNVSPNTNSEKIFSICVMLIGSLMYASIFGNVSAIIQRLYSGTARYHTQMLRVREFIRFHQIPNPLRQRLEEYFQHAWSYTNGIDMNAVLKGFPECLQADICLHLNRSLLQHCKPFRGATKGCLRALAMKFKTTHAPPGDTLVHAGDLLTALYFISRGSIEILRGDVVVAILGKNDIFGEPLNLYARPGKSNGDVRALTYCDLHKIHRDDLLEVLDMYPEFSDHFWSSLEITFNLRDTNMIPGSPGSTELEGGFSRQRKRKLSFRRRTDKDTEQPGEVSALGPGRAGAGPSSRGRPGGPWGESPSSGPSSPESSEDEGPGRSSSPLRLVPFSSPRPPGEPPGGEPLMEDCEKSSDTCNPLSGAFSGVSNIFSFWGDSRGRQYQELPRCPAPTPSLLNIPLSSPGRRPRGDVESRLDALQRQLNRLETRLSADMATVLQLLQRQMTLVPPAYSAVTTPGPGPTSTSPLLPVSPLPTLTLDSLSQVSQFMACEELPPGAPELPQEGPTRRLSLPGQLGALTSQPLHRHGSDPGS
row,Structure (SMILES),"hERG current change (%, negative = inhibition) at 1uM [%]"
1,O=[N+]([O-])c1cc(-c2csc(NCCc3nc4cc(Cl)c(N5CCCCC5)cc4n3CCCO)n2)ccc1Cl,13
2,CCOC(=O)c1c(C)[nH]c(C(=O)CSc2nc3ccccc3o2)c1C,9.24
3,CCOC(=O)CCCn1c(C)nc(=O)c(-c2ccccc2)c1C,5.37
4,CCOc1ccc(Nc2ncnc3c2nnn3Cc2ccccc2)cc1,7.29
5,O=C(NCc1cccc(Cl)c1)c1ccc2c(c1)OCCO2,16.6
6,COc1ccc(C(CC(=O)O)NS(=O)(=O)c2ccc3c(c2)N(C(C)=O)CC(C)O3)cc1 (stereo not shown),21.6
7,CCCNC(=O)c1sc2c(c1C(=O)Nc1ccccn1)CCCC2,1.7
8,CCn1nc(C)c(CN2CCCC(CO)(Cc3ccccc3)C2)c1C (stereo not shown),4.08
9,COC(=O)c1ccc(NC(=O)CN2C(=O)CCC2=O)cc1,8.98
10,Cc1cccc(-n2c(Cc3cc(=O)[nH]c(=O)[nH]3)nnc2SCC(=O)NCc2ccco2)c1,5.36
11,COc1ccc(OC)c(C(=O)c2ccc(Cl)cc2)c1,10.4
12,CCCCC1=CC2=CC(=O)C(C)(OC(=O)c3ccc(Cl)nc3)C(=O)C2=CO1 (stereo not shown),6.32
13,CC(OC(=O)c1ccc(Cl)c(S(=O)(=O)N2CCCC2)c1)C(=O)NC1CCCCC1C (stereo not shown),8.79
14,Cc1cccc(NC(=O)CCc2c(C)nc3ncnn3c2C)n1,8.65
15,CSc1nc(C(=O)N2CCc3c([nH]c4ccccc34)C2c2ccccn2)cs1 (stereo not shown),16.1
16,Cc1noc(C)c1CSCC(=O)Nc1cc(C(F)(F)F)ccc1N1CCOCC1,-3.73
17,CCOC(=O)N1CCN(C(=O)c2cc3c(-c4ccc(Cl)cc4)nn(C)c3s2)CC1,-8.32
18,CN(Cc1cc([N+](=O)[O-])ccc1Cl)C(=O)C[n+]1ccccc1.[Cl-],15.9
19,CC(=O)c1ccc(-c2nnc(CCC(=O)N(C)Cc3cccc4cnccc34)o2)s1,-15
20,COc1cccc(C(=O)C2CCCN(Cc3cccc(-n4nc(C)cc4C)c3)C2)c1 (stereo not shown),-30.5
21,Cc1nn(-c2cc(C)c3ccccc3n2)c2c1C1C(C2)C1(C)C (stereo not shown),9.73
22,COc1ccc(-c2nnc(NC(=O)c3ccccc3[N+](=O)[O-])s2)c(OC)c1,-10.6

row,Structure (SMILES),"hERG current change (%, negative = inhibition) at 1uM [%]"
1,CCOc1ccc(OCc2cccc(C(=O)N/N=C/c3cccnc3)c2)cc1,3.77
2,COc1ccc(N2CCN(Cc3cc(=O)oc4ccc(Cl)cc34)CC2)cc1,10.3
3,Cc1cc(C)c(C#N)c(Oc2ccccc2Br)n1,17.9
4,Cc1nn(CC(=O)NNC(=O)c2ccccc2F)c([N+](=O)[O-])c1Br,8.13
5,COc1ccc(C(=O)CCC(=O)N2CCN(c3ccccc3)CC2)cc1,1.21
6,CC(C)Cn1c(=O)c(C(=O)Nc2ccccc2S(N)(=O)=O)c(O)c2ccccc21,-3.63
7,CSc1cccc(CNC(=O)C2CCC(=O)N(CCc3ccccn3)C2)c1 (stereo not shown),15.2
8,CC(=O)c1ccc(-n2cc(-c3ccc(C(C)(C)C)cc3)[n+]3c2SCCC3)cc1.[Br-],-4.85
9,CCc1noc(C)c1C(=O)OC(C)C(=O)Nc1ccc(Cl)cn1 (stereo not shown),3.15
10,COc1ccc(CN2C(=O)[C@H]3Cc4c([nH]c5ccccc45)C(C)(C)N3C2=O)cc1,15.9
11,O=S(=O)(c1ccc(F)cc1)c1nc(-c2ccccc2)oc1N1CCOCC1,3.6
12,Cc1ccccc1C(=O)NC(=S)NCCc1ccccc1,3.4
13,CC(C)(C)c1ccc(C(=O)Nc2ccc(CC(=O)O)cc2)o1,-8.3
14,CNC(=O)/C(C#N)=C/c1c(N2CCN(c3ccccc3)CC2)nc2c(C)cccn2c1=O,1.76
15,Cc1onc(-c2ccccc2)c1C(=O)NCc1ccco1,7.69
16,O=c1c2ccccc2nc(-c2ccccc2)n1-c1ccccn1,13.4
17,O=c1oc2cc(O)ccc2c2ccccc12,12.6
18,COc1ccccc1NS(=O)(=O)c1cc(NC(=O)c2ccncc2)ccc1N1CCOCC1,6.08
19,CCOC(=O)c1c(NC(=O)Cc2ccccc2)sc2c1CCN(CC)C2.Cl,-18.3
20,CCCCN(C)CCNC(=O)Cn1c(=O)sc2ccccc21,9.2
21,O=C(NCc1ccncc1)C(=O)N/N=C/c1cccnc1,17.3
22,O=C1c2oc3ccc(Cl)cc3c(=O)c2C(c2ccco2)N1CCN1CCOCC1 (stereo not shown),10.3

row,Structure (SMILES),"hERG current change (%, negative = inhibition) at 1uM [%]"
1,CC(=O)OCC(=O)[C@@]1(O)CC[C@H]2[C@@H]3CCC4=CC(=O)CC[C@]4(C)[C@H]3C(=O)C[C@@]21C,2.45
2,O=C(Cn1ccc([N+](=O)[O-])n1)Nc1nc2ccccc2s1,-11.3
3,CC(C)c1nc(SCC(=O)c2ccc(F)cc2)c2ccccc2n1,12.4
4,Br.CCCc1cc(-c2nc(-c3ccc(Cl)cc3)cs2)ccn1,4
5,O=C(O)CCc1ncc(C(F)(F)F)cc1Cl,14.3
6,COC(=O)c1cc(-c2ccccc2)n[nH]1,10.5
7,Cl.NC(N)=NC(N)=Nc1ccc(SC(F)(F)F)cc1,9.66
8,Cc1cccc(N/C(N)=N/c2nc(C)cc(=O)[nH]2)c1,15.1
9,COc1ccc(-c2cnc(N)nc2-c2ccc(OCc3ccccc3)cc2O)cc1,8.07
10,Cc1ccccc1NC(=O)CCCNC(=O)c1ccc(Cl)cc1,12.6
11,COc1ccccc1OCC(=O)Nc1ccc(N2CCCCC2)cc1,-6.82
12,O=C(NCc1ccccc1Cl)C1CCC(=O)N1Cc1ccc(F)cc1 (stereo not shown),17.4
13,O=C(c1ccc([N+](=O)[O-])cc1)N1CCN(c2ncc(Br)cn2)CC1,-11.3
14,Cc1ccc(-n2ncc3c2CC(C)(C)CC3NC(=O)CN2CCCC2=O)cc1 (stereo not shown),5
15,CCOC(=O)CC(=O)CSc1nc2nc(C)cc(C)n2n1,7.68
16,O=C1C(C2=NC(C(=O)O)C3C(=O)N(c4ccc(Cl)cc4)C(=O)C23)=C(O)c2ccccc21 (stereo not shown),0.931
17,Cc1ccc(N2CC(C(=O)OCC(=O)C(C)(C)C)CC2=O)cc1C (stereo not shown),2.59
18,CCNC(=S)N/N=C(\C)c1ccc2ccccc2c1OC(F)F,-3.11
19,Cc1ccc(C(=O)NCc2ccco2)cc1[N+](=O)[O-],0.904
20,CSCCC(NS(=O)(=O)c1cccc(C(F)(F)F)c1)C(=O)N(C)CCOc1ccc(Cl)cc1 (stereo not shown),14.2
21,C[C@H]1CC[C@]2(O[C@@H](CCO)C[C@@H](O)[C@@H]2O)O1,11.1
22,Cc1ccc(-c2nn(C)c(=O)c3ccccc23)cc1CNC(=O)c1ccco1,2.32

row,Structure (SMILES),"hERG current change (%, negative = inhibition) at 1uM [%]"
1,COC(=O)Nc1nc2ccc(-c3n[nH]c(=O)c4ccccc34)cc2[nH]1,1.25
2,O=C1c2ccccc2S(=O)(=O)c2cc(N3CCC(C(=O)N4CCCCC4)CC3)ccc21,15.8
3,COc1cccc2c1OCC(CN1CCN(Cc3ccccc3)C(CCO)C1)=C2 (stereo not shown),-4.17
4,COc1cc(/C=N/Nc2nc(Nc3ccc(C)cc3)nc(-n3nc(C)cc3C)n2)cc(OC)c1OC,6.26
5,CCc1nc(N2CCCCC2)c2oc3ccccc3c2n1.Cl,18.3
6,Fc1ccc(-c2nc3n(n2)Cc2ccccc2-3)cc1,9.62
7,O=C(Nc1ccc(F)cc1)c1ccc2[nH]c(=O)c(=O)[nH]c2c1,14
8,Cc1ccc(S(=O)(=O)N2CCCCC2)cc1NC(=O)CCN1C(=O)C2CC=CCC2C1=O (stereo not shown),2.31
9,COc1ccc(NS(=O)(=O)c2cc(NC(=O)C3CC3)ccc2N2CCOCC2)cc1,-1.57
10,Cc1cc(C)cc(OCC(=O)N/N=C\c2cn(C)nc2C)c1,4.73
11,COc1ccccc1CNC(=O)c1ccccc1OCc1ccc(F)cc1,11.5
12,CCN(CC)CCN1C2=C(C(=O)CC(C)(C)C2)C(c2cccc(F)c2)C2=C1CC(C)(C)CC2=O,12.2
13,CCOc1ccccc1NC(=O)C(CC(C)C)NC(=O)C1CCCCC1 (stereo not shown),-13.4
14,CN(C)CC(=O)Nc1nc(-c2ccccc2)cs1,4.14
15,CC#CCC(CC#CC)c1nc2ccccc2c(=O)n1N,11.6
16,COc1ccc(-n2ncc3c2CC(C)(C)CC3NC(=O)c2ccc(OC)o2)cc1 (stereo not shown),-9.03
17,CSc1nccn1C(=O)c1ccccc1[N+](=O)[O-],7.11
18,CCOC(=O)N1CCN(C(=O)CNS(=O)(=O)c2c(C)cc(C)cc2C)CC1,14.2
19,CCOc1cc(-c2nc3n(c(=O)c2C#N)CCS3)ccc1O,12.5
20,N/C(=N\OS(=O)(=O)c1ccc(Br)cc1)c1ccncc1,4.43
21,CCC(=O)N1CCN=C1SCc1ccccc1,13
22,COc1ccc2c(c1)C(C)=CC(C)(C)N2S(=O)(=O)c1ccc(Br)cc1,15.4
